Data published in article PMC6919601, “Identification of Plasmodium dipeptidyl aminopeptidase allosteric inhibitors by high throughput screening” (PLoS ONE, 2019).
About 230 (0.21%) of roughly 110,000 compounds showed an effect of 50% or more. The list shows a part of the results.

Biological target: DPAP1 (Plasmodium falciparum, UniProt Q8IIJ9)
Assay: primary screen, percent inhibition; read by cleavage of a fluorogenic dipeptide substrate; higher = more effect of the substance
Parameters: species or system P. falciparum D10 trophozoite lysates; single well
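Note: 30 min substrate incubation versus DMSO and 10 µM JCP410 controls.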

Sequence of DPAP1 (Q8IIJ9 whole entry, looked up): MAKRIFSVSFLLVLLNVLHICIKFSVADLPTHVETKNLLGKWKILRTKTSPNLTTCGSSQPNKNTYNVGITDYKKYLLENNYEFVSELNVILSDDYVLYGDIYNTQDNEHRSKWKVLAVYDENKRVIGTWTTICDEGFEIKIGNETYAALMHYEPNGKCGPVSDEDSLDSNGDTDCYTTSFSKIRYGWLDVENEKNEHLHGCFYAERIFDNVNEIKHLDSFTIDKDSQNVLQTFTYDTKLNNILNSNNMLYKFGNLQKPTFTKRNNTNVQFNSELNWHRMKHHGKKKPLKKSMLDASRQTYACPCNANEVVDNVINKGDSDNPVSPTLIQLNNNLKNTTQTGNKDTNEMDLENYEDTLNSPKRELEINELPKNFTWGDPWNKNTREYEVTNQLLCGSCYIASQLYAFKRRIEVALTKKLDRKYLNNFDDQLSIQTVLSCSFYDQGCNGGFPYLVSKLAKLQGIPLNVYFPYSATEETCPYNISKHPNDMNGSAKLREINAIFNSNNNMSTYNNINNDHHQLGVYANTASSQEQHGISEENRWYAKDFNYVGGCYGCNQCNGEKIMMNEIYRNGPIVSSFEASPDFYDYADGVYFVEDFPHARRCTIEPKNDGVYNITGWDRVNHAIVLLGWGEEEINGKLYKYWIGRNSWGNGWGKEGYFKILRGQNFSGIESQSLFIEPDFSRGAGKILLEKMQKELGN

Compound	% Inhibition @ 10 uM
COc1ccc(C(=O)/C=C/c2cccs2)c(OC)c1	5.85%
CCCCNS(=O)(=O)c1ccc2nc(-c3cccnc3)cc(C(=O)NCCC3=CCCCC3)c2c1	0.238%
CCOC(=O)C1=C(C)N=C(SC)N(C(C)=O)C1c1ccccc1 (stereo not drawn)	-2.56%
CCOc1ccc(CCNC(=O)Cn2nc(C)n3c(cc4sccc43)c2=O)cc1	-1.58%
COc1ccc(C2C=C(c3ccc(Br)s3)Nc3nnnn32)c(OC)c1 (stereo not drawn)	3.32%
Cc1ccc(-c2csc(NC(=O)CCCC(=O)O)n2)c(C)c1	0.687%
Cc1ccc(/C=C2/NC(=O)N(Cc3ccccc3F)C2=O)cc1	-3.63%
COCCNC(=O)c1ccc2c(c1)ncn2-c1ccccc1OC	4.35%
CCOc1ccc2nc(N3CCC(C(=O)O)CC3)sc2c1	-5.15%
COc1ccc(N2C(=O)c3cccc4cccc(c34)C2=O)c(OC)c1	3.65%
OCCN(Cc1ccccc1)Cc1ccc(Cl)cc1Cl	-9.93%
CCOc1ccc(-c2[nH]nc(C)c2Oc2ccccc2)c(O)c1	-5.92%
C=C(OCC)c1c(N2CCCCC2)c(=O)c1=O	2.51%
CCOc1cc(/C=C2/NC(=O)NC2=O)cc(Br)c1OCc1cccc(C(=O)O)c1	5.37%
COc1ccc(C2C(C#N)=C(N)N(c3c(F)cccc3F)C3=C2C(=O)CC(C)(C)C3)cc1OC (stereo not drawn)	1.82%
COc1ccc(NC2=NC(=O)/C(=C\c3ccc(N(C)C)cc3)S2)cc1	0.431%
N#CCCS(=O)(=O)c1ccc(Cl)cc1	-0.0369%
CC(C)C(C(=O)O)N1C(=O)C2C3CC(C2C1=O)C1C(c2cccs2)c2sc(O)nc2SC31 (stereo not drawn)	-3.52%
CCN(CC)CCNC(=O)c1ccc2nc(N3CCOCC3)sc2c1	-0.637%
CCCNC(=O)c1nc(C)c(C)nc1C(=O)Nc1ccc(C)cc1	-1.96%
O=C(c1ccc2c(c1)sc1nc(-c3ccccc3)cn12)N1CCN(Cc2ccc3c(c2)OCO3)CC1	25%

Compound	% Inhibition @ 10 uM
N#CCNC(=O)[C@H](CC1CCCCC1)NC(=O)c1sccc1Br	1.35%
Cc1c(Cl)cccc1NC(=O)c1cccnc1	0.135%
C#CCSc1nc2c(c(=O)n1Cc1ccccc1)C1(CCCC1)Cc1ccccc1-2	-1.99%
Clc1ccc(CN2CCN(c3ncccn3)CC2)c(Cl)c1	-5.41%
CCOc1ccc(C2c3c(oc4ccc(C)cc4c3=O)C(=O)N2CCCN2CCOCC2)cc1OC (stereo not drawn)	0.628%
COc1ccccc1CN1CCN(c2ccccc2)CC1	-5.5%
COCCN1C(=O)c2cccc3c(Cl)ccc(c23)C1=O	5.43%
CC1CCN(CC(C)CNC(=O)c2cc(-c3ccccn3)nc3ccccc23)CC1 (stereo not drawn)	-0.519%
Cc1cccc(OCc2nc(C#N)c(N3CCN(c4ccccc4)CC3)o2)c1	-3.16%
Fc1ccc(CN2CCN(c3cccc(Cl)c3)CC2)cc1	-3.71%
CCOc1cc(/C=C(\C#N)c2nn(-c3ccccc3)c(N)c2C#N)cc(Br)c1OC	1.13%
COc1ccc(CCNCC2CCCO2)cc1 (stereo not drawn)	0.472%
Cc1cccc(OCC(=O)Nc2ccc(S(=O)(=O)Nc3ccc(C)cc3C)cc2)c1	-4.14%
Cc1csc2nc(CNS(=O)(=O)c3ccc(Oc4ccccc4)cc3)cn12	2.57%
O=C(Nc1cccnc1)c1cc2nc(-c3ccc(Br)cc3)cc(C(F)(F)F)n2n1	2.4%
Cc1c(C(=O)Nc2cccc3ccccc23)cnn1-c1ccccc1	0.686%
Cc1ccc(NC(=O)c2cccs2)cc1NC(=O)c1cccs1	-4.16%
COc1ccc(-c2oc3ccccc3c(=O)c2O)cc1	-0.615%
Cc1c(C(=O)Nc2ccc(S(=O)(=O)N3CCCCC3C)cc2)oc2ccccc12 (stereo not drawn)	2.73%
CNc1nc2ccc(C(=O)c3ccccc3)cc2n2cnnc12	-7.28%
CCN(CC)CCCNC(=O)C1CCN(c2nnc(N3CCCC3=O)s2)CC1	5.23%

Compound	% Inhibition @ 10 uM
COc1ccc(CCn2cc3c(c2-c2ccc(Cl)cc2)c(=O)n(C)c(=O)n3C)cc1OC	-3.12%
NC(=O)CSc1nc2ccccc2c(=O)n1Cc1ccccc1	-7.55%
NC(=O)C(=O)Nc1nc(C23CC4CC(CC(C4)C2)C3)cs1	7.97%
Cc1nnc2c(N3CC(=O)N(CCc4ccccc4)C(=O)C3)nc3ccccc3n12	-1.67%
COc1ccc2c(C)c(CC(=O)N3CCCCC3)c(=O)oc2c1	-2.57%
CC1(C)NC(=S)N(c2ccccc2)N1	-3.52%
O=C(CSc1nc(O)c2cnn(-c3ccccc3)c2n1)N1CCC(Cc2ccccc2)CC1	-3.35%
c1ccc2c(c1)CCN(c1ncnc3c1nnn3Cc1cccc3ccccc13)C2	-0.0678%
O=C(Nc1ccccc1C(F)(F)F)C1CC(=O)N(c2ccc(Br)cc2)C1 (stereo not drawn)	-5.13%
CCOC(=O)c1c(C)[nH]c(C)c1S(=O)(=O)N(C)CC(=O)N1CCc2ccccc2C1	-4.55%
CC(=O)Nc1cccc(-c2cn3ccsc3n2)c1	-4.03%
CC12CN3CC(C)(CN(C1)C(=O)c1ccccc1C3=O)C2=O	2.94%
Cc1cccc(-n2c(S)nnc2CN2CCN(C)CC2)c1	-4.21%
CC(C)c1ccc(/C=C2\C(=O)NC(=S)N(c3ccc(Cl)cc3)C2=O)cc1	7.55%
O=C(CN1Cc2ccccc2C1=O)N1CCC(Cc2ccccc2)CC1	3.12%
O=C(NCC1(c2ccccc2)CCCC1)C1CCCN1S(=O)(=O)c1cccc2nsnc12 (stereo not drawn)	2.93%
CC(C)(C)c1ccc(OCCCC(=O)O)cc1	0.13%
CC1CCCN(Cc2nc3c(c(=O)n(C)c(=O)n3C)n2CC(=O)c2ccccc2)C1 (stereo not drawn)	-8.06%
Cc1ccc(-c2noc(CCc3ccccc3)n2)cc1	3.66%
Cc1ccc(-c2nc(CS(=O)(=O)CC(=O)NC(C)c3ccccc3)c(C)o2)cc1 (stereo not drawn)	-0.138%
C=CCOc1ccc(C(=O)Nc2cc(-c3ccc(C)cc3)no2)cc1	-1.47%
